Results reported in paper PMC7819943, “Rice protein-binding microarrays: a tool to detect cis-acting elements near promoter regions in rice”.
The list shows a part of the results.

molecular target: T1, OsWOX13 (Oryza sativa, UniProt Q5QMM3 1-267); test: protein-binding microarray (RPBM); PBS, 2% BSA, 51.3 ng/ul salmon testes DNA, 50 uM zinc acetate, 200 nM TF, 25 C, 1 h; high values mean tight binding; details: protein: recombinant; tags: N-terminal polyhistidine and DsRed monomer fusion (pET32a); label: CyDye5-dUTP incorporated in the synthesized complementary strand; 3' TTTTT single-stranded linker to array surface; dsDNA, one strand shown
T1 sequence: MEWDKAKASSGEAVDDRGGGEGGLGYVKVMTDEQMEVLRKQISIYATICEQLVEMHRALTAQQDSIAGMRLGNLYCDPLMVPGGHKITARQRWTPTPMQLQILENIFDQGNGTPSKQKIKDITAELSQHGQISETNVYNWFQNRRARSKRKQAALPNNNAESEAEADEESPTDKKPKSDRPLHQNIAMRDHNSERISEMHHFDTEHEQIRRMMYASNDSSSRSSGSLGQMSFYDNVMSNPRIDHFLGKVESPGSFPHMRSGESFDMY
In short: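 A custom Agilent array was converted to double-stranded form by primer extension with Cy5-dUTP and blocked with 2% BSA. Protein at 200 nM in PBS with 2% BSA, salmon testes DNA and 50 µM zinc acetate was applied for 1 h at 25 °C, followed by washing. The proteins were polyhistidine–DsRed N-terminal fusions of transcription factors, expressed in E. coli BL21-CodonPlus and Ni–NTA-purified. The binding signal is per-feature fluorescence intensity (arbitrary units) from an Axon 4000B scanner.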

**Q.** For “TTAAAATTTTATTATCATTTGTCTATTTTATCAGAGCTTACGGAGTCACCTAGTGCAG”, which binding signal is on record?
**A.** The binding signal was 12400 fluorescence intensity (a.u.).

**Q.** With “TTTAATTTCTCTGCTCACCTTTAGGTTTTAGCCATCTAGACGGAGTCACCTAGTGCAG” as the sequence, how does the binding signal read?
**A.** The binding signal was 4400 fluorescence intensity (a.u.).

**Q.** How did the binding signal turn out when “AATAATTTGAAGGGGATCTCCAAGGATACTCCTTGCGCAGCGGAGTCACCTAGTGCAG” was run?
**A.** The binding signal was 13800 fluorescence intensity (a.u.).

**Q.** Which binding signal does the source give for “TTTCCTCATTTATTCACCTGTCACACCATCTTTCATCATACGGAGTCACCTAGTGCAG” here?
**A.** The binding signal was 4330 fluorescence intensity (a.u.).

**Q.** For “CTACTGATTATTCAAAGCTATGAAGGATCATTCTAAATCACGGAGTCACCTAGTGCAG”, which binding signal is on record?
**A.** The binding signal was 5070 fluorescence intensity (a.u.).

**Q.** For “GCTACAATTTTAATTACAATCTGACCGGACGCATCCACAACGGAGTCACCTAGTGCAG”, which binding signal is on record?
**A.** Its binding signal is 9010 fluorescence intensity (a.u.).

**Q.** For “TTTCCATTCAATTAAACTCACATGGAAATTACTTCGAAAGCGGAGTCACCTAGTGCAG”, which binding signal is on record?
**A.** The binding signal was 13100 fluorescence intensity (a.u.).

**Q.** With “ATCATTTACAAATTACTAAAATTTAAACTCGATATATAAGCGGAGTCACCTAGTGCAG” as the sequence, how does the binding signal read?
**A.** Its binding signal is 4020 fluorescence intensity (a.u.).

**Q.** “TCCACCGGACAGGAGTAATTGGCAAGAAGAAACAAAAGGGCGGAGTCACCTAGTGCAG” was tested. Which binding signal did it give?
**A.** The binding signal was 8060 fluorescence intensity (a.u.).

**Q.** How did the binding signal turn out when “ATTGATGATTTTATCTGGTTTGTTCAGCAATTTTGCAAGACGGAGTCACCTAGTGCAG” was run?
**A.** The binding signal was 18000 fluorescence intensity (a.u.).

**Q.** Which binding signal does the source give for “ACATAATTTTGCCCCGGTAATAAAACTTCAAACTTTATGTCGGAGTCACCTAGTGCAG” here?
**A.** Its binding signal is 13900 fluorescence intensity (a.u.).

**Q.** With “GAACTAACTAATTAAGCTACCTGTGCATGTTGCCCAACCACGGAGTCACCTAGTGCAG” as the sequence, how does the binding signal read?
**A.** The binding signal was 7900 fluorescence intensity (a.u.).

**Q.** How did the binding signal turn out when “GGTCTATAATTAGGGATGGGATAAGCCACTAGGAGGATGACGGAGTCACCTAGTGCAG” was run?
**A.** The binding signal was 7190 fluorescence intensity (a.u.).

**Q.** With “GATTTAAACTGAAACGAACAGATTCTTTGTTCTTTGCATACGGAGTCACCTAGTGCAG” as the sequence, how does the binding signal read?
**A.** The binding signal was 9800 fluorescence intensity (a.u.).

**Q.** With “CCTGGTTTCATCAATCCCCATACCATCCAGATAATGTCTTCGGAGTCACCTAGTGCAG” as the sequence, how does the binding signal read?
**A.** Its binding signal is 3950 fluorescence intensity (a.u.).

**Q.** Which binding signal does the source give for “GGCGATAAATTGAAGCCAACAACATTGTGTCCATTGTCTTCGGAGTCACCTAGTGCAG” here?
**A.** The binding signal was 33000 fluorescence intensity (a.u.).

**Q.** Which binding signal does the source give for “ATTGATGAATGTTGACAAACCTGGTTTGATTTGGAGGGAACGGAGTCACCTAGTGCAG” here?
**A.** The binding signal was 23500 fluorescence intensity (a.u.).

**Q.** For “GAAATTGCTAGTATATTATTTATGGGATATGGGTGTTACTCGGAGTCACCTAGTGCAG”, which binding signal is on record?
**A.** Its binding signal is 3170 fluorescence intensity (a.u.).

**Q.** Which binding signal does the source give for “TTTACGTGACCTAATTGGATGGAGGTACTGTAAGGGAACACGGAGTCACCTAGTGCAG” here?
**A.** Its binding signal is 8140 fluorescence intensity (a.u.).

**Q.** Which binding signal does the source give for “AAATTCTTGGGGTAATTGTAAATTTACTACTACTTTGAATCGGAGTCACCTAGTGCAG” here?
**A.** Its binding signal is 4820 fluorescence intensity (a.u.).

**Q.** For “ATGAGTGAATAAAATAGATAAATTTGGAGATGGTAGTCACCGGAGTCACCTAGTGCAG”, which binding signal is on record?
**A.** Its binding signal is 3240 fluorescence intensity (a.u.).

**Q.** Which binding signal does the source give for “AGTAATTAGAGGCAGATAGTAATAAGTGAGAGAGACGGGACGGAGTCACCTAGTGCAG” here?
**A.** Its binding signal is 8510 fluorescence intensity (a.u.).

**Q.** How did the binding signal turn out when “AGCTTTGACTGGTCCCCAGCCAGCTCGCCTATAAACGCGCCGGAGTCACCTAGTGCAG” was run?
**A.** The binding signal was 6360 fluorescence intensity (a.u.).

**Q.** How did the binding signal turn out when “GGATTAATTAAGCTTAATAAATTCGTCTCGCAGTTTCCTGCGGAGTCACCTAGTGCAG” was run?
**A.** Its binding signal is 27000 fluorescence intensity (a.u.).

**Q.** Which binding signal does the source give for “ATTGTATCTAATTATTGGCAACATGGAAATTAATCTCTTGCGGAGTCACCTAGTGCAG” here?
**A.** Its binding signal is 9160 fluorescence intensity (a.u.).

**Q.** For “TGAATAATTGCCCAGTTAAAATGTCTGCTACTGAACACTGCGGAGTCACCTAGTGCAG”, which binding signal is on record?
**A.** Its binding signal is 25800 fluorescence intensity (a.u.).

**Q.** With “CTAGACATTGATGGAACTCCGAACAAGTCAAAATTGGGTGCGGAGTCACCTAGTGCAG” as the sequence, how does the binding signal read?
**A.** Its binding signal is 14000 fluorescence intensity (a.u.).

**Q.** “GTACATGAATTTTGATTAATTGCTAATTTTACATATGGATCGGAGTCACCTAGTGCAG” was tested. Which binding signal did it give?
**A.** Its binding signal is 26000 fluorescence intensity (a.u.).

**Q.** Which binding signal does the source give for “TGGTCATTTTGACAAAATTAACGGTGTCTAACAGAGTGAACGGAGTCACCTAGTGCAG” here?
**A.** The binding signal was 8280 fluorescence intensity (a.u.).

**Q.** For “GAATAAGTAATTATACTTATCATCCATTTAAACATGTTGCCGGAGTCACCTAGTGCAG”, which binding signal is on record?
**A.** The binding signal was 6520 fluorescence intensity (a.u.).

**Q.** “CTTTTAGATTTGGTAAATAACTATTTGCCACCTCTATCTCCGGAGTCACCTAGTGCAG” was tested. Which binding signal did it give?
**A.** Its binding signal is 3540 fluorescence intensity (a.u.).

**Q.** Which binding signal does the source give for “CCAGAAATAATTTGAATGCTGATACAGAAACTCGATTTCACGGAGTCACCTAGTGCAG” here?
**A.** Its binding signal is 5000 fluorescence intensity (a.u.).

**Q.** With “AACTTTTGTAGAGATTGATTGATCTACTGGGCTTGGCCAACGGAGTCACCTAGTGCAG” as the sequence, how does the binding signal read?
**A.** The binding signal was 26900 fluorescence intensity (a.u.).

**Q.** “CCAGAGTGAGCAACTGATTGGTAGGCAATCATATGGGATACGGAGTCACCTAGTGCAG” was tested. Which binding signal did it give?
**A.** Its binding signal is 25200 fluorescence intensity (a.u.).

**Q.** With “TGGATGATTATGTGTCTGACCAAGCGGTTCGAGATGTGAACGGAGTCACCTAGTGCAG” as the sequence, how does the binding signal read?
**A.** Its binding signal is 16400 fluorescence intensity (a.u.).

**Q.** Which binding signal does the source give for “CGCCACCAATCAGCGAGCTGCCGGACGAAATATCGGCGCGCGGAGTCACCTAGTGCAG” here?
**A.** The binding signal was 4640 fluorescence intensity (a.u.).

**Q.** How did the binding signal turn out when “TCAAACTGACATATTGTCAACCGCACAATTAGGCACACAACGGAGTCACCTAGTGCAG” was run?
**A.** Its binding signal is 17900 fluorescence intensity (a.u.).

**Q.** How did the binding signal turn out when “AATAATAAAATAAATTACATATTCTGTCTGTAAACTACAACGGAGTCACCTAGTGCAG” was run?
**A.** The binding signal was 4300 fluorescence intensity (a.u.).

**Q.** “CGAGTTAACTTAATTACCACGCGTATCTTAATTACACTGCCGGAGTCACCTAGTGCAG” was tested. Which binding signal did it give?
**A.** The binding signal was 13200 fluorescence intensity (a.u.).

**Q.** For “GTGATTAATTAATTATTAATTAATCGCTAATCAGGATAATCGGAGTCACCTAGTGCAG”, which binding signal is on record?
**A.** The binding signal was 65500 fluorescence intensity (a.u.).

**Q.** How did the binding signal turn out when “GCTTCTATATCCGTGATTGTTAACACTATTATATTGTTATCGGAGTCACCTAGTGCAG” was run?
**A.** Its binding signal is 5570 fluorescence intensity (a.u.).

**Q.** Which binding signal does the source give for “GTCCGCCTCTAATCACGCCCTACCCAATCTAATCCTAAGCCGGAGTCACCTAGTGCAG” here?
**A.** The binding signal was 4240 fluorescence intensity (a.u.).
